# The other results are listed elsewhere or left out.
# B1: LecB LY19 (Pseudomonas aeruginosa) (protein)
# chain: MATQGVFTLPANTQFGVTAFANSAGTQTVNVQVNNETVATFTGQSTNNGIIGSKVLNSGGGGKVQILVSVNGRSSDLVSAQVILANELNFALVGSEDSTDNDYNDAVVVINWPLG
# Assays:
# Experiment in all cases: glycan array binding signal (z-score within array); higher = stronger binding
# Conditions in all cases: glycan notation: IUPAC condensed, linker removed
# [1] = target: Gal(b1-4)GlcNAc(b1-2)[Gal(b1-4)GlcNAc(b1-6)]Man(a1-6)[GlcNAc(b1-4)][Gal(b1-4)GlcNAc(b1-2)Man(a1-3)]Man(b1-4)GlcNAc(b1-4)GlcNAc
# How it was run: (§1)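 From the Consortium for Functional Glycomics database, 3228 arrays were curated, keeping only those whose protein sequence was available. Binding is given as a within-array Z-score averaged across arrays sharing a protein sequence and across linkers. Negative Z-scores can be read as non-binding.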
# [2] = target: Gal(b1-4)GlcNAc(b1-2)[Gal(b1-4)GlcNAc(b1-6)]Man(a1-6)[GlcNAc(b1-4)][Gal(b1-4)GlcNAc(b1-2)[Gal(b1-4)GlcNAc(b1-4)]Man(a1-3)]Man(b1-4)GlcNAc(b1-4)[Fuc(a1-6)]GlcNAc
# How it was run: as §1
# [3] = target: Gal(b1-4)GlcNAc(b1-3)Gal(b1-3)GalNAc
# How it was run: as §1
# [4] = target: Gal(b1-4)GlcNAc(b1-3)Gal(b1-3)GlcNAc
# How it was run: as §1
# [5] = target: Gal(b1-4)GlcNAc(b1-3)Gal(b1-4)Glc
# How it was run: as §1
# [6] = target: Gal(b1-4)GlcNAc(b1-3)Gal(b1-4)GlcNAc
# How it was run: as §1
# [7] = target: Gal(b1-4)GlcNAc(b1-3)Gal(b1-4)GlcNAc(b1-2)Man(a1-3)[Gal(b1-4)GlcNAc(b1-3)Gal(b1-4)GlcNAc(b1-2)Man(a1-6)]Man(b1-4)GlcNAc(b1-4)GlcNAc
# How it was run: as §1
# [8] = target: Gal(b1-4)GlcNAc(b1-3)Gal(b1-4)GlcNAc(b1-2)Man(a1-3)[Gal(b1-4)GlcNAc(b1-3)Gal(b1-4)GlcNAc(b1-2)Man(a1-6)]Man(b1-4)GlcNAc(b1-4)[Fuc(a1-6)]GlcNAc
# How it was run: as §1
# [9] = target: Gal(b1-4)GlcNAc(b1-3)Gal(b1-4)GlcNAc(b1-2)[Gal(b1-4)GlcNAc(b1-3)Gal(b1-4)GlcNAc(b1-6)]Man(a1-6)[Gal(b1-4)GlcNAc(b1-3)Gal(b1-4)GlcNAc(b1-2)Man(a1-3)]Man(b1-4)GlcNAc(b1-4)GlcNAc
# How it was run: as §1
# [10] = target: Gal(b1-4)GlcNAc(b1-3)Gal(b1-4)GlcNAc(b1-2)[Gal(b1-4)GlcNAc(b1-3)Gal(b1-4)GlcNAc(b1-6)]Man(a1-6)[Gal(b1-4)GlcNAc(b1-3)Gal(b1-4)GlcNAc(b1-2)Man(a1-3)]Man(b1-4)GlcNAc(b1-4)[Fuc(a1-6)]GlcNAc
# How it was run: as §1
# [11] = target: Gal(b1-4)GlcNAc(b1-3)Gal(b1-4)GlcNAc(b1-3)Gal(b1-4)GlcNAc
# How it was run: as §1
# [12] = target: Gal(b1-4)GlcNAc(b1-3)Gal(b1-4)GlcNAc(b1-3)Gal(b1-4)GlcNAc(b1-2)Man(a1-3)[Gal(b1-4)GlcNAc(b1-3)Gal(b1-4)GlcNAc(b1-3)Gal(b1-4)GlcNAc(b1-2)Man(a1-6)]Man(b1-4)GlcNAc(b1-4)GlcNAc
# How it was run: as §1
# [13] = target: Gal(b1-4)GlcNAc(b1-3)Gal(b1-4)GlcNAc(b1-3)Gal(b1-4)GlcNAc(b1-2)Man(a1-3)[Gal(b1-4)GlcNAc(b1-3)Gal(b1-4)GlcNAc(b1-3)Gal(b1-4)GlcNAc(b1-2)Man(a1-6)]Man(b1-4)GlcNAc(b1-4)[Fuc(a1-6)]GlcNAc
# How it was run: as §1
# [14] = target: Gal(b1-4)GlcNAc(b1-3)Gal(b1-4)GlcNAc(b1-3)Gal(b1-4)GlcNAc(b1-2)[Gal(b1-4)GlcNAc(b1-3)Gal(b1-4)GlcNAc(b1-3)Gal(b1-4)GlcNAc(b1-6)]Man(a1-6)[Gal(b1-4)GlcNAc(b1-3)Gal(b1-4)GlcNAc(b1-3)Gal(b1-4)GlcNAc(b1-2)Man(a1-3)]Man(b1-4)GlcNAc(b1-4)[Fuc(a1-6)]GlcNAc
# How it was run: as §1
# [15] = target: Gal(b1-4)GlcNAc(b1-3)Gal(b1-4)GlcNAc(b1-3)Gal(b1-4)GlcNAc(b1-3)Gal(b1-4)GlcNAc(b1-2)Man(a1-3)[Gal(b1-4)GlcNAc(b1-3)Gal(b1-4)GlcNAc(b1-3)Gal(b1-4)GlcNAc(b1-3)Gal(b1-4)GlcNAc(b1-2)Man(a1-6)]Man(b1-4)GlcNAc(b1-4)GlcNAc
# How it was run: as §1
# [16] = target: Gal(b1-4)GlcNAc(b1-3)Gal(b1-4)GlcNAc(b1-3)Gal(b1-4)GlcNAc(b1-3)Gal(b1-4)GlcNAc(b1-2)Man(a1-3)[Gal(b1-4)GlcNAc(b1-3)Gal(b1-4)GlcNAc(b1-3)Gal(b1-4)GlcNAc(b1-3)Gal(b1-4)GlcNAc(b1-2)Man(a1-6)]Man(b1-4)GlcNAc(b1-4)[Fuc(a1-6)]GlcNAc
# How it was run: as §1
# [17] = target: Gal(b1-4)GlcNAc(b1-3)Gal(b1-4)GlcNAc(b1-3)Gal(b1-4)GlcNAc(b1-3)Gal(b1-4)GlcNAc(b1-2)[Gal(b1-4)GlcNAc(b1-3)Gal(b1-4)GlcNAc(b1-3)Gal(b1-4)GlcNAc(b1-3)Gal(b1-4)GlcNAc(b1-6)]Man(a1-6)[Gal(b1-4)GlcNAc(b1-3)Gal(b1-4)GlcNAc(b1-3)Gal(b1-4)GlcNAc(b1-3)Gal(b1-4)GlcNAc(b1-2)Man(a1-3)]Man(b1-4)GlcNAc(b1-4)[Fuc(a1-6)]GlcNAc
# How it was run: as §1
# [18] = target: Gal(b1-4)GlcNAc(b1-3)Gal(b1-4)GlcNAc(b1-3)Gal(b1-4)GlcNAc(b1-3)Gal(b1-4)GlcNAc(b1-3)Gal(b1-4)GlcNAc(b1-2)Man(a1-3)[Gal(b1-4)GlcNAc(b1-3)Gal(b1-4)GlcNAc(b1-3)Gal(b1-4)GlcNAc(b1-3)Gal(b1-4)GlcNAc(b1-3)Gal(b1-4)GlcNAc(b1-2)Man(a1-6)]Man(b1-4)GlcNAc(b1-4)GlcNAc
# How it was run: as §1
# [19] = target: Gal(b1-4)GlcNAc(b1-3)Gal(b1-4)GlcNAc(b1-3)Gal(b1-4)GlcNAc(b1-3)Gal(b1-4)GlcNAc(b1-3)Gal(b1-4)GlcNAc(b1-2)Man(a1-3)[Gal(b1-4)GlcNAc(b1-3)Gal(b1-4)GlcNAc(b1-3)Gal(b1-4)GlcNAc(b1-3)Gal(b1-4)GlcNAc(b1-3)Gal(b1-4)GlcNAc(b1-2)Man(a1-6)]Man(b1-4)GlcNAc(b1-4)[Fuc(a1-6)]GlcNAc
# How it was run: as §1
# [20] = target: Gal(b1-4)GlcNAc(b1-3)Gal(b1-4)GlcNAc(b1-3)Gal(b1-4)GlcNAc(b1-3)Gal(b1-4)GlcNAc(b1-3)Gal(b1-4)GlcNAc(b1-2)[Gal(b1-4)GlcNAc(b1-3)Gal(b1-4)GlcNAc(b1-3)Gal(b1-4)GlcNAc(b1-3)Gal(b1-4)GlcNAc(b1-3)Gal(b1-4)GlcNAc(b1-6)]Man(a1-6)[Gal(b1-4)GlcNAc(b1-3)Gal(b1-4)GlcNAc(b1-3)Gal(b1-4)GlcNAc(b1-3)Gal(b1-4)GlcNAc(b1-3)Gal(b1-4)GlcNAc(b1-2)Man(a1-3)]Man(b1-4)GlcNAc(b1-4)[Fuc(a1-6)]GlcNAc
# How it was run: as §1
# [21] = target: Gal(b1-4)GlcNAc(b1-3)Gal(b1-4)GlcNAc(b1-3)Gal(b1-4)GlcNAc(b1-3)Gal(b1-4)GlcNAc(b1-3)Gal(b1-4)GlcNAc(b1-3)Gal(b1-4)GlcNAc(b1-2)Man(a1-3)[Gal(b1-4)GlcNAc(b1-3)Gal(b1-4)GlcNAc(b1-3)Gal(b1-4)GlcNAc(b1-3)Gal(b1-4)GlcNAc(b1-3)Gal(b1-4)GlcNAc(b1-3)Gal(b1-4)GlcNAc(b1-2)Man(a1-6)]Man(b1-4)GlcNAc(b1-4)GlcNAc
# How it was run: as §1
# [22] = target: Gal(b1-4)GlcNAc(b1-3)Gal(b1-4)GlcNAc(b1-3)GalNAc
# How it was run: as §1
# [23] = target: Gal(b1-4)GlcNAc(b1-3)Gal(b1-4)GlcNAc(b1-3)[Gal(b1-4)GlcNAc(b1-3)Gal(b1-4)GlcNAc(b1-6)]GalNAc
# How it was run: as §1
binder,measurement,setting,value
B1,glycan array binding signal (z-score),[1],-0.542
same,glycan array binding signal (z-score),[2],0
same,glycan array binding signal (z-score),[3],-0.557
same,glycan array binding signal (z-score),[4],-0.443
same,glycan array binding signal (z-score),[5],-0.478
same,glycan array binding signal (z-score),[6],-0.549
same,glycan array binding signal (z-score),[7],-0.523
same,glycan array binding signal (z-score),[8],0.535
same,glycan array binding signal (z-score),[9],-0.357
same,glycan array binding signal (z-score),[10],0.367
same,glycan array binding signal (z-score),[11],-0.536
same,glycan array binding signal (z-score),[12],-0.517
same,glycan array binding signal (z-score),[13],0.469
same,glycan array binding signal (z-score),[14],0.039
same,glycan array binding signal (z-score),[15],-0.45
same,glycan array binding signal (z-score),[16],0.457
same,glycan array binding signal (z-score),[17],0.294
same,glycan array binding signal (z-score),[18],-0.457
same,glycan array binding signal (z-score),[19],0.867
same,glycan array binding signal (z-score),[20],0.395
same,glycan array binding signal (z-score),[21],-0.438
same,glycan array binding signal (z-score),[22],-0.546
same,glycan array binding signal (z-score),[23],-0.541

# Source: the supplement of paper PMC8728848
